The whole screen tested about 150,000 compounds, of which about 540 (0.36%) showed an effect of 50% or more. The list shows a part of the results.
These compounds were tested on Plasmodium falciparum (assay: Primary screen in NF54 nanoGlo assay, in single point, at 2uM, 72h; a lower Z score goes with more inhibition). Conditions: timepoint 72 hour.
Assay type: functional, Erythrocyte

Structure (SMILES)	% Inhibition [%]	Z score
CC(C)(C)C(=O)NCc1nc([C@H]2CCOC2)no1	-9	1.27
Nc1n[nH]c2nccc(-c3ccccc3)c12	-14	1.6
COc1ccc(-c2cc3c(=O)n(Cc4ccccc4Cl)ccn3n2)cc1	0	0.01
Cc1nc(CCCC(=O)N2CC[C@H](CCO)C2)cs1	0	0.01
Cc1ccc2c(c1)CCCN2C(=O)c1cccc(-n2cnnn2)c1	-7	1.36
CNC(=O)[C@H]1CCCN(c2nc3ncn(CC(=O)Nc4ccccc4)c(=O)c3s2)C1	-31	2.71
Cc1cccc2c1C(C)CC2NCCN1C(=O)CNC1=O (stereo not given)	-3	0.41
C=CCNC(=O)N[C@H]1[C@H](O)[C@@H](n2ccnc2)[C@@H]2OC[C@H]1O2	27	-3.1
CC(C)N(Cc1cnn(C)c1)C(=O)C[C@@H](c1ccccc1)c1ccccc1F	-8	1.01
CC(C)C1CCN(S(=O)(=O)c2sc3c(c2C(=O)O)CCNC3)CC1	-2	0.23
C[C@H]1CN(CC(=O)N(C)C2CC2)c2ccccc2CN1C(=O)OC(C)(C)C	-12	1.21
O=C1C[C@@H](c2ccc(Cl)cc2)N=C(NC(=O)c2ccc(Oc3ccccc3)cc2)N1	-4	0.44
COc1ccc(/C=C/c2ccnc(N3CCCC3)n2)cc1	6	-1.06
CC1(C)CN(Cc2cnn(C3(C)CCS(=O)(=O)C3)c2)CCC1C(F)(F)F (stereo not given)	-16	1.38
Cc1ccccc1C1CC1C(=O)NCc1n[nH]c(=O)[nH]1 (stereo not given)	-7	0.97
CNC(=O)CN(C)Cc1ccn(C(C)C)n1	-7	0.97
CC1CC1c1ccc(CNC(=O)N(C)C(C)CS(C)(=O)=O)o1 (stereo not given)	17	-1.55
CO[C@@H]1CC[C@@]2(OC)CCN(Cc3ccccc3OCCO)[C@H]2C1	-4	0.5
O=C(Cc1ccccc1)Nc1ccc2oc(-c3ccc4ccccc4c3)nc2c1	-14	2.67
C[C@H]1CCCCN1C(=O)c1ccc(NC(=O)Nc2cnn(CCO)c2)cc1	-18	2.08
Cc1ccc([C@H](CNC(=O)COc2cc(C)c(Cl)c(C)c2)N2CCCC2)o1	2	-0.33
Cc1noc(C)c1CCC(=O)N1CCC[C@H](OCCO)C1	0	0.06

Structure (SMILES)	% Inhibition [%]	Z score
O=S(=O)(c1cnccc1C(F)(F)F)N1CC2(CC2)C1	-4	0.7
C[C@@H](C(=O)NC(=O)NC1CC1)N(C)Cc1cnn(-c2ccccc2)c1	-13	1.57
CC1(O)C2CCCC2=NN1c1nc2ccccc2s1 (stereo not given)	15	-1.92
CC(NCC(CCO)c1ccccc1)C(C)NC(=O)OC(C)(C)C (stereo not given)	-9	1.5
Cc1sc(N)nc1-c1ccc2c(c1)CCC2	-13	1.92
O=C(c1ccccc1O)N1CCc2[nH]nc(-c3cccc4ccccc34)c2C1	-1	0.11
O=C([C@H](Cc1ccccc1)N1Cc2ccccc2C1=O)N1CC=C(c2ccccc2)CC1	-19	2.39
CCC[C@H](C)n1ccnc1-c1cccc(C)n1	-5	0.84
Cc1ccc(Oc2cccc(C(=O)Nc3ccc(C(N)=O)cc3)c2)nn1	-22	1.94
COc1ccc(CNC(=O)Cc2nnc(-c3cccs3)o2)cc1	-13	1.26
CN(C)c1ccc(C2=NNC(c3cccs3)=Nc3ccccc32)cc1	-2	0.24
c1ccc(-c2cnn3cc(CN4CC[C@H]4c4ccccc4)cnc23)cc1	-2	0.23
C[C@H](C(=O)N1CCCC1(CO)CO)C1CC1	-8	1.28
C[C@@H](c1ccccc1Cl)n1ccnc1-c1ccc(S(C)(=O)=O)cc1	7	-1.33
Cc1cnc(C)c(N2C[C@H](O)[C@@H](N3CCN(C)CC3)C2)n1	7	-1.05
O=C1C[C@H](Cc2ccccc2)CN1Cc1cncnc1	-3	0.47
CC(=O)NCc1ccc(C(=O)Nc2ccc3nnc(C(C)C)n3c2)s1	3	-0.55
Cc1cc2oc(-c3ccccc3)c(CC(=O)O)c2c(O)n1	-9	1.14
CCCCN(Cc1cccnc1)C(=O)c1nc(C)[nH]c1C	-14	2.08
Cn1cccc1C(=O)Nc1ccccc1CN1CCCCC1	-10	1.65
COc1ccc(CC2=NO[C@H](C(=O)N3CCN(c4cccc(OC)c4)C(=O)C3)C2)cc1	-11	1.37
FC(F)c1ccc(-c2noc([C@@H]3CC=CCC3)n2)cn1	-12	1.93

Structure (SMILES)	% Inhibition [%]	Z score
CN(Cc1nc(-c2ccncc2)no1)c1ncnc2c1CCNCC2	0	-0.05
CCn1ccc2c(CN3CCO[C@H](C(=O)O)C3)cccc21	-6	0.6
Cn1cnc2c1CN(C(=O)c1ccoc1)CC2	-10	1.1
N#Cc1c([C@H]2CCCNC2)cc(-c2ccc(Cl)c(Cl)c2)nc1N	-4	0.69
COc1cccc(C(=O)N2C[C@@H]3CC[C@H]2CN(Cc2ccccn2)C3)c1O	-13	1.3
COc1ccccc1CN1CC[C@H]2CC(=O)Nc3ccccc3OCC[C@H]2C1	1	-0.14
O=C(Nc1ccccc1OCCc1ccccn1)N[C@H]1CCCNC1=O	-2	0.25
Cc1oc(C)c(C(=O)Nc2ccc(N(C)C)nc2)c1C	-23	4.34
Cc1nccn1C1CN(C(=O)COc2ccc(F)cc2)C1	-7	0.94
Cc1ccc(C)c(C(=O)N2[C@@H]3CC[C@H]2CC(NC(=O)c2cnc(C)cn2)C3)c1 (stereo not given in full)	-10	1.93
Cn1c(CN2CCCCCC2)nnc1C1CCN(C(=O)c2ccc[nH]2)CC1	-6	1.34
CC(C)(C)c1ccc(OCC2CC(F)(F)C2)nn1	-14	1.82
Cn1c(=O)n(CC2(CS(C)(=O)=O)CC2)c2ccccc21	6	-1.12
O=C(NCCCc1nc(=O)[nH][nH]1)c1coc(C2CCCCC2)n1	-7	0.64
Cc1cscc1CNC(=O)N1CCS(=O)(=O)CC[C@@H]1C	10	-1.12
CC1=CCN(C(=O)Nc2cc3c(cc2N(C)C)n(C)c(=O)n3C)CC1	-11	1.06
O=C(O)c1ccccc1CCC(=O)N1CC[C@H](C2CCOCC2)C1	-16	1.92
Cc1ccccc1CN1CCC[C@H](N2CCOCC2)C1=O	-15	1.92
O=C(c1ccc(O)cn1)N1C[C@H]2CCC[C@@H](C2)C1	0	-0.01
C[C@@H]1CN(Cc2ccccc2)CCN1C(=O)NCc1nnn(C)n1	-16	3.06
COCCN(Cc1ccoc1)C(=O)NCCOc1ccccc1	-17	2.21
CC(C)c1nccn1CC(=O)N(C)c1nccs1	-6	0.65

Structure (SMILES)	% Inhibition [%]	Z score
Cc1cc(C(=O)N2CCC(CS(N)(=O)=O)CC2)c(C)n1C(C)C	-7	1.26
COc1ccc(OC)c(N2C(=O)[C@@H]3C[C@H]2CN3C(=O)c2ccc3ccccc3n2)c1	-17	2.26
Cc1nc([C@@H]2CCCN2c2ncc(Br)cn2)no1	-29	3.36
Cc1[nH]nc(CCC(=O)N2C[C@@H]3CC[C@H]2CN(Cc2ccccn2)C3)c1C	1	-0.12
Cc1cc(=O)[nH]c(CNC(=O)COC[C@H]2CCCCO2)n1	-17	1.59
O=S(=O)(NC[C@H]1Cc2ccccc2CO1)c1cccnc1	-4	0.41
Cc1nc(-c2ccc(NC(=O)[C@@H]3Cc4ccccc4O3)cc2)co1	-6	0.58
CC(C)(Nc1ccccc1)C(=O)N1CCn2cncc2C1	-6	1.07
Cn1c(C(=O)N2CCC(C(=O)O)CC2)ccc1-c1ccccc1Br	-9	1.13
Cc1nnc(NC(=O)NCc2cccnc2N2CCOCC2)s1	23	-3.07
Cc1ccc(CN2CCC3(CCC(=O)N(C4CC4)C3)CC2)c(F)c1F	10	-1.35
COc1ccc(CNc2cncc(-c3nncn3C)c2)cc1OCc1cccnc1	-8	0.84
COc1ccc([C@H](CNC(=O)Nc2ccc(S(N)(=O)=O)cc2)N2CCCCC2)cc1	-8	1.19
CCN(CC1CCOCC1)C(=O)CN1CCCCCC1=O	15	-1.91
COc1ccc(NC(=O)N2CCN(CCn3c(-c4ccccc4)nc4cccnc43)CC2)cc1OC	5	-0.59
CC#CCN1C(=O)N[C@@](CCc2ccccc2)(C2CCN(Cc3cccs3)CC2)C1=O	-4	0.57
COc1ccc(C(NCC2(OC)CCOCC2)C2CCCN2C(=O)OC(C)(C)C)cc1 (stereo not given)	-8	1.52
CC(C)CCn1c(CCCC(=O)N2CCC(C)CC2)nc2cccnc21	-19	2.35
Cc1cc(NC(=O)[C@H]2CCC2(C)C)ncn1	-8	1.47

Source: ChEMBL document CHEMBL4888484, “Replenishing the malaria drug discovery pipeline: Screening and hit evaluation of the MMV Hit Generation Library 1 (HGL1) against asexual blood stage Plasmodium falciparum ,using a nano luciferase reporter read-out” (2022)
